# Among all 39,000 compounds or so, about 220 (0.56%) showed activity. Some of the results follow.
# Tested on: Escherichia coli K-12 BW25113
# Experiment: relative growth (OD600 normalised to plate interquartile mean) (fraction); higher = less growth inhibition, active = 0.2 or less
# Settings: 50 µM; LB; incubation time: overnight (16-24 h)
# 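Note: static incubation at 37 °C against the wild-type strain, values averaged over two biological replicates.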
row,SMILES,relative growth
1,COc1ccc(NC(=O)N(C)C[C@@H]2OCCCC[C@H](C)Oc3ccc(NC(=O)Nc4ccc5c(c4)OCO5)cc3C(=O)N([C@@H](C)CO)C[C@H]2C)cc1,inactive: 1.03
2,CC1C2CCC3C4CC=C5CC(N(C)C)CCC5(C)C4CCC32CN1C (configuration not stated),inactive: 1.1
3,Cc1noc(C)c1NC(=O)Nc1cccc2c1O[C@@H](CN(C)Cc1ccc(-c3ccccc3)cc1)[C@@H](C)CN([C@H](C)CO)C2=O,inactive: 1.01
4,CC(=O)c1ccc2ccccc2c1,inactive: 0.952
5,COCCNCc1ccc(-c2cc3nccc(Oc4ccc(NC(=O)C5(C(=O)Nc6ccc(F)cc6)CC5)cc4F)c3s2)nc1,inactive: 0.965
6,CN1C(=O)c2cc(NC(=O)C3CCCC3)ccc2OC[C@H]2O[C@H](CC(=O)NCCc3ccncc3)CC[C@@H]21,inactive: 0.984
7,C[C@H](CO)N1C[C@H](C)[C@H](CN(C)Cc2ccc(Oc3ccccc3)cc2)Oc2ccc(NC(=O)C3CC3)cc2C1=O,inactive: 0.964
8,O=C(O)Cn1nc2ccccc2n1,inactive: 1.01
9,OCC(CO)NC1CC(O)(CO)C(O)C(O)C1O (configuration not stated),inactive: 1.05
10,CCCCn1c(N)c(N(CC)C(=O)Cc2ccc(S(=O)(=O)N3CCOCC3)s2)c(=O)[nH]c1=O,inactive: 0.976
11,COc1ccc(S(=O)(=O)N(C)C[C@@H]2Oc3ccc(NC(=O)Nc4c(C)noc4C)cc3C(=O)N([C@@H](C)CO)C[C@H]2C)cc1,inactive: 1.01
12,C[C@H]1CN([C@@H](C)CO)C(=O)Cc2cc(NC(=O)Nc3cccc4ccccc34)ccc2O[C@H]1CN(C)C(=O)Nc1ccc(F)cc1,inactive: 1.04
13,C[C@H](CO)N1C[C@H](C)[C@@H](CN(C)C(=O)Nc2ccc(F)cc2)OCCCC[C@H](C)Oc2ccc(NC(=O)c3ccccc3)cc2C1=O,inactive: 1
14,N[C@@H](CN1C=CC(=O)C(=O)C1)C(=O)O,inactive: 1.01
15,C[C@H](CO)N1C[C@H](C)[C@@H](CN(C)S(=O)(=O)c2ccc(Cl)cc2)Oc2ccc(NC(=O)Nc3ccc(C(F)(F)F)cc3)cc2CC1=O,inactive: 0.989
16,C=CCOC(=O)[C@H]1[C@@H]2C(=O)O[C@@H](c3ccccc3)[C@@H](c3ccccc3)N2[C@@H](c2ccc(OCCOC(=O)[C@H]3C[C@H]4C(=O)N[C@@H](Cc5ccccc5)C(=O)N4[C@H]3c3cccc(OCCO)c3)cc2)[C@]12C(=O)Nc1ccccc12,inactive: 1.06
17,Cc1ccc(-c2ccc3c(c2)O[C@H](CN(C)C(=O)CN(C)C)[C@H](C)CN([C@@H](C)CO)S3(=O)=O)cc1,inactive: 0.987
18,CO[C@H]1CN(C)C(=O)c2cc(NS(=O)(=O)CC(F)(F)F)ccc2OC[C@H](C)N(C(=O)c2ccc3c(c2)OCO3)C[C@@H]1C,inactive: 0.976
19,C[C@@H]1CN([C@@H](C)CO)C(=O)c2cc(NC(=O)NC3CCCCC3)ccc2O[C@@H](C)CCCCO[C@H]1CN(C)C(=O)Nc1ccccc1,inactive: 1.01
20,CCO[C@H]1OC(C(=O)N2CCN(Cc3ccc4c(c3)OCO4)CC2)=C[C@@H](c2ccc3c(c2)OCO3)[C@@H]1CCCO,inactive: 1.01
21,C[C@@H]1CN([C@H](C)CO)C(=O)c2cc(C#CCN(C)C)cnc2O[C@@H]1CN(C)C(=O)CN1CCOCC1,inactive: 0.994

row,SMILES,relative growth
1,C[C@H](CO)N1C[C@H](C)[C@H](CN(C)Cc2ccc(-c3ccccc3)cc2)Oc2c(NS(=O)(=O)c3cccs3)cccc2C1=O,inactive: 1.04
2,Cc1ccc(S(=O)(=O)Nc2ccc3c(c2)C(=O)N([C@@H](C)CO)C[C@H](C)[C@H](CN(C)Cc2ccncc2)OCCCC[C@@H](C)O3)cc1,inactive: 1.02
3,O=C(O)CNS(=O)(=O)c1ccccc1,inactive: 1.01
4,C[C@@H]1CN([C@H](C)CO)C(=O)Cc2cc(NC(=O)C3CC3)ccc2O[C@@H]1CN(C)S(=O)(=O)c1ccccc1,inactive: 0.953
5,C[C@H]1CN([C@@H](C)CO)C(=O)c2cccc(NC(=O)c3ccc(-c4nccs4)cc3)c2O[C@H]1CN(C)S(=O)(=O)c1cn(C)cn1,inactive: 0.991
6,C[C@@H]1CCCCO[C@@H](CN(C)Cc2ccc(C(=O)O)cc2)[C@H](C)CN([C@H](C)CO)C(=O)c2cc(NC(=O)NC3CCCCC3)ccc2O1,inactive: 1.02
7,C[C@H]1CN([C@@H](C)CO)S(=O)(=O)c2ccc(C#CC3CCCCC3)cc2O[C@H]1CN(C)C(=O)Cc1ccncc1,inactive: 1.03
8,CN1CCN(CC#N)C(=O)C12CCN([C@H]1CCOC1)CC2,inactive: 0.961
9,COCC(=O)c1ccnn1C,inactive: 1.05
10,COc1ccc(S(=O)(=O)Nc2ccc3c(c2)CC(=O)N([C@@H](C)CO)C[C@@H](C)[C@@H](CN(C)C(=O)Nc2c(C)noc2C)O3)cc1,inactive: 1
11,C=CCC[C@@H](Cc1ccc(F)cc1)C(=O)OC[C@@H](Cc1c[nH]c2ccccc12)NC(=O)[C@H](CC=C)CC(=O)N(CCO)Cc1ccccc1,inactive: 1.06
12,C[C@H]1CN([C@@H](C)CO)C(=O)Cc2cc(NC(=O)C3CC3)ccc2O[C@H]1CN(C)S(=O)(=O)c1ccc(F)cc1,inactive: 0.954
13,Cc1noc(C)c1NC(=O)Nc1ccc2c(c1)C(=O)N([C@@H](C)CO)C[C@@H](C)[C@H](CN(C)C(=O)NC1CCCCC1)OCCCC[C@H](C)O2,inactive: 1.01
14,C[C@@H]1CN([C@H](C)CO)C(=O)Cc2cc(NC(=O)NC3CCCCC3)ccc2O[C@H]1CN(C)S(=O)(=O)c1cn(C)cn1,inactive: 1.03
15,C[C@@H]1CCCCO[C@H](CN(C)C(=O)Nc2cccc3ccccc23)[C@@H](C)CN([C@H](C)CO)C(=O)c2cc(NC(=O)NC3CCCCC3)ccc2O1,inactive: 0.985
16,CC(C)NC(=O)N(C)C[C@@H]1Oc2ccc(NC(=O)C3CCCCC3)cc2CC(=O)N([C@@H](C)CO)C[C@@H]1C,inactive: 1.02
17,Clc1ccccc1Nc1ccc(-c2ccncc2)s1,inactive: 1.03
18,S=c1[nH]cnc2nc[nH]c12,inactive: 0.822
19,CC(Cn1cnc2c(N)ncnc21)OCP(=O)(O)O (configuration not stated),inactive: 0.984
20,C[C@@H]1CN([C@H](C)CO)C(=O)c2cc(NC(=O)Nc3ccccc3)ccc2O[C@@H](C)CCCCO[C@@H]1CN(C)Cc1ccncc1,inactive: 0.974
21,C[C@@H]1CCCCO[C@@H](CN(C)CC2CC2)[C@@H](C)CN([C@H](C)CO)C(=O)c2cc(NC(=O)NC3CCCCC3)ccc2O1,inactive: 1.06

row,SMILES,relative growth
1,COc1ccc(NC(=O)N(C)C[C@@H]2OCCCC[C@@H](C)Oc3ccc(NS(=O)(=O)c4ccc(F)cc4)cc3C(=O)N([C@H](C)CO)C[C@H]2C)cc1,inactive: 1
2,Cc1cccc(S(=O)(=O)N2C[C@@H](O)COC[C@@H]3O[C@H](CC(=O)NCc4ccc5c(c4)OCO5)CC[C@H]32)c1,inactive: 0.892
3,Cc1ccc(S(=O)(=O)N(C)C[C@@H]2Oc3ccc(NS(C)(=O)=O)cc3CC(=O)N([C@H](C)CO)C[C@H]2C)cc1,inactive: 1.01
4,Cc1ccc(-c2ccc3c(c2)O[C@H](CN(C)C(=O)Nc2ccc(C(F)(F)F)cc2)[C@@H](C)CN([C@H](C)CO)S3(=O)=O)cc1,inactive: 0.763
5,C[C@@H]1CN([C@H](C)CO)C(=O)c2cc(NS(C)(=O)=O)ccc2O[C@@H]1CN(C)C(=O)NC1CCCCC1,inactive: 0.938
6,OCc1cc(O)c2c(O)c3c(O)cccc3c(O[C@@H]3O[C@H](CO)[C@@H](O)[C@H](O)[C@H]3O)c2c1,inactive: 1
7,C[C@@H]1CCCCO[C@@H](CN(C)C(=O)Nc2cccc3ccccc23)[C@H](C)CN([C@H](C)CO)C(=O)c2cc(NC(=O)Cc3ccccc3)ccc2O1,inactive: 1.04
8,CC(=O)N(C)[C@H]1C(=O)C(=O)c2ccccc2C1=O,inactive: 0.914
9,C[C@@H]1CN([C@@H](C)CO)C(=O)c2cc(NC(=O)CCCN(C)C)ccc2O[C@@H](C)CCCCO[C@H]1CN(C)C(=O)Nc1cccc2ccccc12,inactive: 1.01
10,C[C@@H]1CCCCO[C@@H](CN(C)C(=O)Nc2cccc3ccccc23)[C@@H](C)CN([C@H](C)CO)C(=O)c2cc(NC(=O)CCCCCC(=O)Nc3ccccc3N)ccc2O1,inactive: 0.999
11,OC[C@@H]1COCCN1Cc1ccccc1,inactive: 1.01
12,COc1ccc(S(=O)(=O)N(C)C[C@H]2OCCCC[C@@H](C)Oc3ccc(NC(=O)Nc4cccc5ccccc45)cc3C(=O)N([C@@H](C)CO)C[C@@H]2C)cc1,inactive: 1.06
13,COc1ccccc1C#Cc1ccc2c(c1)O[C@@H](CN(C)Cc1cncnc1)[C@@H](C)CN([C@H](C)CO)S2(=O)=O,inactive: 1.04
14,COCC(=O)N(C)C[C@H]1Oc2cc(C#C[C@H](C)O)ccc2S(=O)(=O)N([C@@H](C)CO)C[C@H]1C,inactive: 1.01
15,O=C(O)c1ccc(O)cn1,inactive: 1.01
16,CCCCCCCCNC(C)C(O)c1ccc(SC(C)C)cc1 (configuration not stated),inactive: 0.434
17,C[C@@H]1CN([C@@H](C)CO)C(=O)c2cc(NC(=O)Nc3ccc(C(F)(F)F)cc3)ccc2O[C@@H](C)CCCCO[C@H]1CN(C)Cc1ccncc1,inactive: 0.956
18,C[C@@H]1CCCCO[C@@H](CN(C)S(=O)(=O)c2cccs2)[C@@H](C)CN([C@@H](C)CO)C(=O)c2cc(NC(=O)Nc3ccc4c(c3)OCO4)ccc2O1,inactive: 1.01
19,O=C(Nc1nccs1)[C@@H]1[C@@H](CO)[C@@H]2Cn3c(cccc3=O)[C@@H]2N1C(=O)C1CC1,inactive: 0.999
20,CN(C)C(=O)C[C@H]1CC[C@H]2[C@@H](COc3ccc(NS(=O)(=O)c4cccc(F)c4)cc3C(=O)N2C)O1,inactive: 1.02

# Source: the supplement of paper PMC9446081
